# Measurements: PubChem BioAssay AID1347073 (National Center for Advancing Translational Sciences (NCATS), 2019)
# The whole screen tested about 45,000 compounds, of which about 200 (0.44%) were called active. Roughly 7% stayed inconclusive and do not appear here. Calls come from the whole dose curve; as a rule, active = well fitted activation curve with a large enough effect; inconclusive = small, poorly fitted or top-dose-only effect; inactive = no such curve, though single readings can be large or run the other way. Some of the results follow. Peptide text beside a SMILES is read from it. * marks the point of attachment. Cbz = O=C(OCc1ccccc1)*
# Experiment: qHTS of TDP-43 Inhibitors: NCGC Sytravon Library Screen; note: 0% is about no effect; nearly all actives have a fitted effect of over 55% in size
# Conditions: yeast TDP-43 toxicity rescue, BacTiter-Glo growth, 24 h; series mostly up to 46.1 µM; growth rescue (activation): at the top concentration
# Summary of the method: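 TDP-43-expressing yeast, pregrown in raffinose, seeded at OD600 0.02 in galactose medium with compound for 24 hr at 30 deg C. Growth read by BacTiter-Glo luminescence, so rescue of toxicity appears as activation.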
row,Structure (SMILES),growth rescue (activation)
1,CCOc1ccc(Cl)cc1S(=O)(=O)N1CCC(C(=O)NCC2CCCO2)CC1 (configuration not stated),inactive: -22.7%
2,COCCN1Cc2cccc(C(=O)NCCCN3CCCC3=O)c2C1=O,inactive: 16%
3,C[C@H](NC(=O)c1ccco1)C(=O)NNC(=O)c1ccc(F)cc1,inactive: -7.56%
4,CC(=O)Nc1ccc(NC(=O)CC(C)n2ccnc2)cc1 (configuration not stated),inactive: -8.64%
5,CC(C)CCNC(=O)c1ccc2c(SCC(=O)O)c3c(nc2c1)CCC3,inactive: 5.96%
6,O=C(O)c1cccc(N2C(=O)CSC2=S)c1,inactive: 28.7%
7,C=CCNC(=S)N/N=C/c1ccc(-c2ccc(Br)cc2)o1,inactive: 15.8%
8,Cc1ccc(S(=O)(=O)N(CC(=O)NN=C2CCN(C)CC2)c2ccc(F)cc2)cc1,inactive: 3.33%
9,C=CCOc1ccc(C2NC(=S)NC3=C2CCc2ccccc23)cc1 (configuration not stated),inactive: 31.1%
10,O=C(Nc1ncc(Cc2ccc(C(F)(F)F)cc2)s1)c1ccc(-c2cccc([N+](=O)[O-])c2)o1,inactive: 26.6%
11,COc1ccc(S(=O)(=O)NCc2cccnc2)cc1C(=O)NC1CCCCC1,inactive: 9.83%
12,COC(=O)Nc1ccc2c(c1)N(C(=O)CCN1CCN3CCCC3C1)c1ccccc1CC2 (configuration not stated),inactive: -7.33%
13,O=C(NNC(=S)NCc1ccco1)c1cccs1,inactive: 18%
14,O=C(CSc1nc(O)cc(=O)[nH]1)N1c2ccccc2CCc2ccccc21,inactive: 28.6%
15,Cc1cc(=O)c(C(=O)O)nn1-c1cccc(C(F)(F)F)c1,inactive: 7.54%
16,O=C(NCCc1nc2ccccc2[nH]1)c1ccc(Cl)c([N+](=O)[O-])c1,inactive: 5.23%
17,N#CCCN(CCC#N)C(=O)C1c2ccccc2Oc2ccccc21,inactive: 0.341%
18,CC(C)N=C1NN=C(c2ccc(Cl)c(Cl)c2)CS1,inactive: 10.3%
19,O=C(O)/C=C/c1ccc(S(=O)(=O)N2CCCCCC2)cc1,inactive: 27.6%
20,O=C(O)CCC(NC(=O)C1CCCN1C(=O)OCc1ccccc1)C(=O)O (stereo not drawn) (Cbz-Pro-Glu-OH; configuration not given here),inactive: 11.6%
21,O=C(c1cccc(NS(=O)(=O)c2cccc([N+](=O)[O-])c2)c1)N1CCOCC1,inactive: 10.5%
22,CC(C)(C)NC(=O)CSc1nc2ccccc2c(=O)[nH]1,inactive: 2.38%
23,COc1ccc(CNS(=O)(=O)NCc2ccc(C)cc2)cc1OC,inactive: 13.2%
24,O=C(CN1CCN(C(=O)C2CCCO2)CC1)Nc1cc(C(F)(F)F)ccc1Cl (configuration not stated),inactive: 20%
25,Cn1c(CCNS(=O)(=O)c2ccccc2)nnc1SCc1cccnc1,inactive: -13.6%
26,CCOC(=O)CN(C)Cc1cn(C)nc1-c1ccc(Oc2ccccc2)cc1,inactive: 3.51%

row,Structure (SMILES),growth rescue (activation)
1,CSc1ccc(/C=N/NC(=O)CN2CCN(Cc3ccc(Cl)cc3)CC2)cc1,inactive: 10.1%
2,O=C(NCCCO)C(=O)c1c(-c2ccccc2)cc2ccccn12,inactive: 3.82%
3,CCOC(=O)N1CCC(N(CCN(C)C)C(=S)Nc2cc(C)ccc2C)CC1,inactive: 3.73%
4,Cc1ccc(CN(c2ccc(C(=O)N3CCOCC3)cc2)S(C)(=O)=O)cc1,inactive: -16.9%
5,CCc1ccc2oc(C(=O)NCCc3ccc(S(N)(=O)=O)cc3)cc(=O)c2c1,inactive: 0.144%
6,CN(C)S(=O)(=O)c1ccc(NC(=O)CSc2nnc(-c3ccco3)n2N)cc1,inactive: -13.2%
7,Cc1nc2ccccc2nc1OCc1ccccc1,inactive: 23.8%
8,Clc1ccc(-c2nc3c4cnn(-c5ccccc5Br)c4ncn3n2)c(Cl)c1,inactive: 18.6%
9,NC(CCc1ccccc1)c1csc(Nc2ccc(C(F)(F)F)cn2)n1 (configuration not stated),inactive: 0.31%
10,CC(C)C(C)NC(=O)CN1C(=O)NC2(CCc3ccccc32)C1=O (configuration not stated),inactive: -8.39%
11,Cc1ccc(C2=Nc3ccccc3N=C(C(Cl)Cl)C2)cc1,inactive: -8.2%
12,CCCC(c1nnnn1CS(=O)(=O)c1ccc(C)cc1)N1CCN(CC)CC1 (configuration not stated),inactive: -21.9%
13,COc1ccc(CN2C[C@@H](CO)O[C@@H](n3cnc4c(NC5CC5)ncnc43)C2)cc1,inactive: 17%
14,O=C1C2C3C=CC(C4CC34)C2C(=O)N1/N=C/c1cccs1 (configuration not stated),inactive: 2.57%
15,N#Cc1ccc(COC(=O)CSc2nnc(N)s2)cc1,inactive: 10.2%
16,CC(CCc1ccccc1)NC(=O)CNc1cccc([N+](=O)[O-])c1 (configuration not stated),inactive: 17.6%
17,N#Cc1c(SCC(=O)Nc2cccc(C(F)(F)F)c2)sc2c(O)cc(=O)[nH]c12,inactive: 4.23%
18,COc1ccc(CNC(=O)C2CCC(CNc3c(N4CCOCC4)c(=O)c3=O)CC2)cc1 (configuration not stated),inactive: 3.56%
19,O=C(N/N=C/c1cccnc1)c1ccc(CN2c3cccc4cccc(c34)S2(=O)=O)cc1,inactive: 1.74%
20,CC(/C=C\c1cccnc1)=C/C(=O)O,inactive: -3.1%
21,Cc1cc(C)nc(NC(N)=NCCc2c[nH]c3ccccc23)n1,inactive: 3.66%
22,COc1ccc(-c2cc(C(=O)N3CCCC3)no2)cc1,inactive: -0.244%
23,O=C(COC(=O)c1cccnc1)Nc1cccc2ccccc12,inactive: 6.85%
24,COC(=O)c1ccc(C)c(-n2c(C)cc(C=O)c2C)c1,inactive: 25.1%
25,CCOc1ccc(NC(=O)c2ccco2)c([N+](=O)[O-])c1,inactive: 30.6%
26,COc1ccccc1N1C(C)=CC(=C(C#N)c2nc3ccccc3s2)C=C1C,inactive: 9.32%
